Laboratory results published in the supplement of paper PMC11417369.
± gives the standard deviation of the averaged measurements. This is one part of the list.

Test system: PfAP2-G AP2 domain (GST-tagged)
Assay: gcPBM binding intensity (ln(normalized median fluorescence intensity)); higher = stronger DNA binding
Procedure, shortened: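 Each value is the highest Masliner-normalised natural-log median intensity across replicate spots of either orientation of a probe. The probes were primer-extended double-stranded 36-bp intergenic genomic sequences on an Agilent 4 × 180k array, alongside negative controls, exposed for 1 h to GST-tagged P. falciparum DNA-binding domains expressed in E. coli. Bound protein was picked up with Alexa488 anti-GST antibody and scanned at 488 nm.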

Sequence	gcPBM binding intensity (ln)
TTCTCATCCTTACATACACACACATATATATATATA [CACACA_site7914]	10.6 ± 0.74
GTTATTAAAAACGGGTGTACACATATATAAATATAT [XGTACX_site1234]	11.6 ± 0.86
TATTTATTATAAAAATTGTATAAAATAATAATGCTC [GTGCAC_negctrl_site456]	9.9 ± 0.3
TTTTGTGATCTTACCACCTTTCATAATATTAATAAA [GTGCAC_negctrl_site360]	10.4 ± 0.21
ATATATTTTAATGATACACACAAGAAATAAAATTAC [CACACA_site5671]	10.2 ± 0.15
ATAGAACAATTCAGAAGTACATAAAAAGAAAAATTT [XGTACX_site3015]	11.4 ± 0.84
TTGGATGATTAAGGGGGACACACGTTTATATATTTA [CACACA_site338]	11.4 ± 0.79
TTCATTCTATAAAACACACAAATATTTTTGTATCCC [CACACA_site6458]	10.01 ± 0.085
ACTTTTTTAATGTTACGTACACATAAATAATAATTA [XGTACX_site8092]	11.6 ± 0.9
TTTCACAAATGATATAGTACTTTTTATTATTAACAT [XGTACX_site7976]	11.1 ± 0.64
ATATATTTTTTGAATACACACATATTATATGTAATA [CACACA_site1256]	10 ± 0.18
TAAAAAAAAAAAAAAGTACACACTTATAAAATATTA [CACACA_site872]	11.6 ± 1
TTTATTTATTTAATTACACACGAACATATAACCATT [CACACA_site7952]	10.3 ± 0.29
ACAAATGAGATTATATGTACACATAACAAATTTACA [XGTACX_site3496]	11.5 ± 0.79
GTTACACCAACAAACACACACACACCGACACCCAAA [CACACA_site5361]	10.4 ± 0.39
AAATGTAAAATTTTATGTACATATATTTATATAATA [XGTACX_site3737]	11.5 ± 0.8
TTTTGACATTAATTACTATAGTGTTCTTATAAAATT [TGCATGCA_negctrl_site589]	10.01 ± 0.014
CATTTTATTTTAATATGTACTTAAAGAAAAAAAATT [XGTACX_site7670]	11.2 ± 0.82
TTATACATATATTTAACACACATTTTATAAAGTGCC [CACACA_site1314]	9.875 ± 0.078
AAAACTATAATGAATAGTACATAAAAATGGATATAT [XGTACX_site6056]	11 ± 0.5
AATCGATAAAATGTTGTGCACATATTTTTATATTTA [GTGCAC_site9651]	10.4 ± 0.22
AATACATAAAAATAAAAATAAAATATAACTAATATG [CACACA_negctrl_site186]	9.78

Sequence	gcPBM binding intensity (ln)
TTAAATTACTAATGTGCACACATACTAACGTTTAAA [CACACA_site3573]	10.5 ± 0.29
TATCTTATTTTATCTCGTACATAAAATTAAAAAATT [XGTACX_site3636]	10.9 ± 0.62
AATATGTATCCATACACACATACATTTTATTTGCAA [CACACA_site874]	10.2 ± 0.18
TTTTATTTATTATTTACACACACGTAGGTGTCCATA [CACACA_site430]	10.7 ± 0.69
ATATAAAATCAACAAAAAAAAAAAATATATATATAT [XGTACX_negctrl_site251]	9.64 ± 0.49
TGTATATATTTGTGCACACCAAAGTTTGATTTTATT [CACACA_site1860]	10.7 ± 0.38
TTAACCTTTATATAATACGTATCATCCTCATATATA [CACACA_negctrl_site86]	10.4 ± 0.2
TTATATTTTTTAATTACACACAATTCTTATAAATAT [CACACA_site7870]	9.95 ± 0.099
TATTATAACTAAAAAAATCACATAAAATACTTTATT [CACACA_negctrl_site2]	9.46 ± 0.22
TATATACACATGCGCACACACAAGTGGGAAATTTGG [CACACA_site6930]	10.4 ± 0.2
AATATTTGCCTATGTTGTACTGACATTTTTTTAAGT [XGTACX_site6836]	11.2 ± 0.58
ATATATAATATATGATGTACTTAATAATTTTTTTTT [XGTACX_site5715]	11.1 ± 0.93
TAATAATCCACAAGCACACACACACCCATATATATA [CACACA_site1267]	10.3 ± 0.28
TTAAGGATCCACGATACACACATATCATTCAACAAA [CACACA_site1924]	10.2 ± 0.28
TATATATCGTTATATACACACATGTATATAAAAAAT [CACACA_site7501]	10.1 ± 0.17
TTATTCTAGTAGTGTGTGCGCATGGACAATGCAATA	10.8 ± 0.35
ATACATATAATATATGCATGTACCAATCAAATATAT [TGCATGCA_site192]	10.5 ± 0.29
TTCTTTATATACAAACCAAAATATTATGTATAATAA [CACACA_negctrl_site15]	9.83 ± 0.071
CTTTATATAAAATAAAGTACATAAATTATGATATAT [XGTACX_site3699]	11.2 ± 0.88
ATATTTTATTTATATACACACACATATATATATTAT [CACACA_site8177]	10.22 ± 0.042
TAATTTTTTTTTATGATACACACTTGGATAATTAAA [CACACA_site562]	10.2 ± 0.39
TTATTATATATTTTATTTATTAATAGTATATATTAT [TGCATGCA_negctrl_site155]	9.74 ± 0.16
